Experimental data from the supplement of paper PMC12217912.
The list shows a part of the results. The full chains were built here from the parent and the listed change. Inactive controls read about 0.05.

B1: TEV protease; numbered along this chain (parent)
chain: MGESLFKGPRDYNPISSSICHLTNESDGHTTSLYGIGFGPFIITNKHLFRRNNGTLVVQSLHGVFKVKDTTTLQQHLVDGRDMIIIRMPKDFPPFPQKLKFREPQREERICLVTTNFQTKSMSSMVSDTSCTFPSGDGIFWKHWIQTKDGQCGSPLVSTRDGFIVGIHSASNFTNTNNYFTSVPKNFMELLTNQEAQQWVSGWRLNADSVLWGGHKVFMVKPEEPFQPVKEATQL

Variants of: B1
Experiment: raw area under fraction-flipped curve 0-4 h after induction (AUC4h, not background-subtracted), DNA-recorder readout of cleavage of the substrate (dimensionless); higher = more cleavage of the substrate by the protease variant
Details: temperature: 34 °C; time window: 0-4 h after rhamnose induction
Protocol: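 In vivo DNA recorder in E. coli TOP10(DE3) ΔrhaA at 34 °C. Each TEVp single-site mutant (parent TEVp 0) is paired with a single-site variant of the 7-mer TEVs (canonical ENLYFQ|S). The substrate sits between flexible linkers in a Bxb1-sfGFP-TEVs-SsrA fusion, so cleavage stabilises Bxb1 and speeds flipping of a recombination array, read by NGS. The value is the raw area under the fraction-flipped curve over 0-4 h after rhamnose induction (AUC4h), with ≥20 reads per time point. It is not background-subtracted; inactive controls average about 0.047.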
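Note: Bxb1 expression induced with 0.2% (w/v) L-rhamnose at OD600 near 0.5, cultures sampled hourly, flipped fraction per protease–substrate barcode pair counted by paired-end Illumina sequencing.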

Row | Variant | area with substrate ENLAFQS | area with substrate ENLCFQS | area with substrate ENLDFQS | area with substrate ENLFFQS | area with substrate ENLHFQS | area with substrate ENLIFQS | area with substrate ENLKFQS | area with substrate ENLLFQS | area with substrate ENLNFQS | area with substrate ENLPFQS | area with substrate ENLQFQS | area with substrate ENLRFQS | area with substrate ENLSFQS | area with substrate ENLVFQS | area with substrate ENLWFQS | area with substrate ENLEFQS | area with substrate ENLGFQS | area with substrate ENLMFQS | area with substrate ENLTFQS
1 | D69Q | 0.0407 | 0.0693 | 0.0631 | 0.0905 | 0.0638 | 0.0962 | 0.082 | 0.111 | 0.0625 | 0.061 | 0.0549 | 0.0744 | 0.0541 | 0.0802 | 0.0674 |  |  |  | 
2 | K221N | 0.063 | 0.0558 | 0.0621 | 0.0814 | 0.0649 |  | 0.0824 |  | 0.0557 | 0.0626 | 0.0607 | 0.0772 | 0.0551 | 0.0706 |  | 0.062 |  |  | 
3 | E103Y | 0.0736 |  |  |  | 0.0681 | 0.0826 | 0.0775 |  | 0.0644 | 0.0628 |  |  |  |  |  |  |  |  | 
4 | I164H | 0.0631 | 0.0534 | 0.0036 | 0.0491 | 0.0545 | 0.0554 | 0.0505 | 0.0667 | 0.0551 |  | 0.0548 |  | 0.0497 | 0.0538 |  | 0.0517 |  |  | 
5 | S4K | 0.0664 | 0.127 | 0.0662 | 0.0926 |  | 0.076 | 0.0726 |  | 0.0462 | 0.0621 |  |  | 0.0436 | 0.0954 | 0.074 |  | 0.075 | 0.0941 | 
6 | I85K |  | 0.0669 | 0.0564 | 0.0693 | 0.0599 |  | 0.061 | 0.0589 |  | 0.0498 |  |  |  | 0.0412 | 0.0505 | 0.0764 |  |  | 0.0695
7 | D79G |  | 0.0834 | 0.0596 | 0.0704 | 0.0707 |  | 0.0865 | 0.0734 | 0.0582 | 0.0581 | 0.0544 | 0.0799 | 0.0574 | 0.0704 | 0.0708 | 0.0616 | 0.0639 |  | 
8 | C111K |  | 0.0411 |  | 0.0903 | 0.0516 | 0.0782 | 0.118 |  | 0.0606 |  |  | 0.0781 | 0.0776 |  |  | 0.0664 |  |  | 0.0413
9 | Q198V |  | 0.109 | 0.0706 | 0.0988 | 0.0821 | 0.0916 |  |  |  | 0.0672 | 0.0598 |  |  |  | 0.065 |  |  |  | 0.0757
10 | K221T |  | 0.0641 | 0.0642 | 0.0703 | 0.0557 | 0.0736 | 0.0709 | 0.07 | 0.0542 | 0.0766 | 0.0728 |  | 0.0595 | 0.069 | 0.0575 | 0.0605 | 0.0649 |  | 
11 | T132S |  | 0.0319 | 0.0619 | 0.0705 | 0.0645 |  | 0.0901 |  | 0.0775 |  |  |  |  |  | 0.068 |  |  |  | 
12 | T159Y |  | 0.0706 | 0.0588 |  | 0.0504 |  | 0.0807 | 0.0635 |  | 0.0493 | 0.0685 |  |  |  | 0.0661 | 0.0466 | 0.0722 |  | 
13 | F117M |  | 0.064 | 0.031 | 0.075 | 0.0701 |  | 0.0825 |  | 0.0585 |  |  | 0.0753 | 0.031 |  |  |  | 0.0637 |  | 
14 | H21K |  | 0.0738 | 0.0626 | 0.0796 | 0.0754 |  | 0.0816 | 0.0788 | 0.0719 | 0.0956 | 0.0623 | 0.0716 | 0.06 | 0.08 | 0.0621 |  | 0.0704 | 0.0948 | 
15 | F140I |  | 0.0545 | 0.056 | 0.0576 | 0.0566 |  | 0.0622 | 0.057 | 0.0585 | 0.0664 | 0.0746 | 0.0603 | 0.0654 | 0.0558 | 0.0511 | 0.0552 | 0.0763 |  | 
